{"source": "patent US8580752B2", "about": "“Aromatic amides as potentiators of bioefficacy of anti-infective drugs” (priority 2005, dated 2013)", "key": {"MRSA 450": {"system": "MRSA 450", "assay": "MIC by checkerboard method", "type": "cell-based, Staphylococcus aureus", "settings": "S aureus MRSA 450"}, "MRSA 15187": {"system": "MRSA 15187", "assay": "MIC by checkerboard method", "type": "cell-based, Staphylococcus aureus", "settings": "S aureus MRSA 15187"}, "M. tuberculosis H37Rv": {"system": "M. tuberculosis H37Rv", "assay": "MIC by checkerboard method", "type": "cell-based, Mycobacterium tuberculosis", "settings": "Tables 5A/5B"}, "Gm −ve bacteria": {"system": "Gm −ve bacteria", "type": "cell-based, Gram negative"}, "S aureus ATCC 29213": {"system": "S aureus ATCC 29213", "assay": "MIC by checkerboard method", "type": "cell-based, Staphylococcus aureus", "settings": "for MIC Amikacin / MIC Ciprofloxacin / MIC Mupirocin: Tables 5A/5B"}, "MRSA": {"system": "MRSA", "assay": "MIC by checkerboard method, comparison with piperine", "type": "cell-based, Staphylococcus aureus", "settings": "Tables 5A/5B"}, "M. tb": {"system": "M. tb", "assay": "MIC of anti infective drugs alone and with potentiators", "type": "cell-based, Mycobacterium tuberculosis"}, "MRSA 33": {"system": "MRSA 33", "assay": "MIC by checkerboard method", "type": "cell-based, Staphylococcus aureus", "settings": "S aureus MRSA 33"}, "Gm +ve bacteria": {"system": "Gm +ve bacteria", "type": "cell-based, Gram positive"}, "[1]": {"settings": "with compound of formula 1a 12.5 μg/ml"}, "[2]": {"settings": "with compound of formula 1a 25.0 μg/ml"}, "[3]": {"settings": "with compound of formula 1a 50.0 μg/ml"}, "[4]": {"settings": "with the labelled potentiator +6.25 μg/ml"}, "[5]": {"settings": "with the labelled potentiator +12.5 μg/ml"}, "[6]": {"settings": "with the labelled potentiator +25.0 μg/ml"}, "[7]": {"settings": "Norfloxacin + potentiator vs drug alone"}, "[8]": {"settings": "Ofloxacin + potentiator vs drug alone"}, "[9]": {"settings": "with the labelled potentiator +50.0 μg/ml"}}, "note": "Like-named read-outs stand apart in the source and are kept apart here.", "data": [{"smiles": "CCC(/C=C/C(=O)N1CCCCC1)=C\\c1ccc2c(c1)OCO2", "note": "[compound of formula 1a, 4-ethyl-5-(3,4-methylenedioxyphenyl)-2E,4E-pentadienoic acid piperidine amide]", "values": [{"measurement": "MIC of Mupirocin", "setting": "MRSA 450; [1]", "value": 0.12, "unit": "µg/mL"}, {"measurement": "MIC of Mupirocin", "setting": "MRSA 450; [2]", "value": 0.12, "unit": "µg/mL"}, {"measurement": "MIC of Mupirocin", "setting": "MRSA 450; [3]", "value": 0.06, "unit": "µg/mL"}, {"measurement": "MIC of Mupirocin", "setting": "MRSA 15187; [1]", "value": 0.12, "unit": "µg/mL"}, {"measurement": "MIC of Mupirocin", "setting": "MRSA 15187; [2]", "value": 0.06, "unit": "µg/mL"}, {"measurement": "MIC of Mupirocin", "setting": "MRSA 15187; [3]", "value": 0.06, "unit": "µg/mL"}, {"measurement": "MIC Rifampicin", "setting": "M. tuberculosis H37Rv; [4]", "value": 0.12, "unit": "µg/mL"}, {"measurement": "MIC Rifampicin", "setting": "M. tuberculosis H37Rv; [5]", "value": 0.06, "unit": "µg/mL"}, {"measurement": "MIC Rifampicin", "setting": "M. tuberculosis H37Rv; [6]", "value": 0.015, "unit": "µg/mL"}, {"measurement": "MIC Drug + potentiator", "setting": "Gm −ve bacteria; Norfloxacin + potentiator", "value": "0.03 to 32", "unit": "µg/mL"}, {"measurement": "% decrease in MIC", "setting": "Gm −ve bacteria; [7]", "value": "0-50%"}, {"measurement": "MIC Drug + potentiator", "setting": "Gm −ve bacteria; Ofloxacin + potentiator", "value": "0.03 to 16", "unit": "µg/mL"}, {"measurement": "% decrease in MIC", "setting": "Gm −ve bacteria; [8]", "value": 50, "unit": "%"}, {"measurement": "MIC Amikacin", "setting": "S aureus ATCC 29213; [4]", "value": 1.0, "unit": "µg/mL"}, {"measurement": "MIC Ciprofloxacin", "setting": "S aureus ATCC 29213; [4]", "value": 0.12, "unit": "µg/mL"}, {"measurement": "MIC Mupirocin", "setting": "S aureus ATCC 29213; [4]", "value": 0.12, "unit": "µg/mL"}, {"measurement": "MIC Amikacin", "setting": "S aureus ATCC 29213; [5]", "value": 1.0, "unit": "µg/mL"}, {"measurement": "MIC Ciprofloxacin", "setting": "S aureus ATCC 29213; [5]", "value": 0.06, "unit": "µg/mL"}, {"measurement": "MIC Mupirocin", "setting": "S aureus ATCC 29213; [5]", "value": 0.06, "unit": "µg/mL"}, {"measurement": "MIC Amikacin", "setting": "S aureus ATCC 29213; [6]", "value": 0.5, "unit": "µg/mL"}, {"measurement": "MIC Ciprofloxacin", "setting": "S aureus ATCC 29213; [6]", "value": 0.06, "unit": "µg/mL"}, {"measurement": "MIC Mupirocin", "setting": "S aureus ATCC 29213; [6]", "value": 0.06, "unit": "µg/mL"}, {"measurement": "MIC Amikacin", "setting": "S aureus ATCC 29213; [9]", "value": 0.12, "unit": "µg/mL"}, {"measurement": "MIC Ciprofloxacin", "setting": "S aureus ATCC 29213; [9]", "value": 0.03, "unit": "µg/mL"}, {"measurement": "MIC Mupirocin", "setting": "S aureus ATCC 29213; [9]", "value": 0.06, "unit": "µg/mL"}, {"measurement": "MIC of Mupirocin", "setting": "S aureus ATCC 29213; [1]", "value": 0.06, "unit": "µg/mL"}, {"measurement": "MIC of Mupirocin", "setting": "S aureus ATCC 29213; [2]", "value": 0.06, "unit": "µg/mL"}, {"measurement": "MIC of Mupirocin", "setting": "S aureus ATCC 29213; [3]", "value": 0.03, "unit": "µg/mL"}, {"measurement": "MIC Amikacin", "setting": "MRSA; [4]", "value": 4.0, "unit": "µg/mL"}, {"measurement": "MIC Ciprofloxacin", "setting": "MRSA; [4]", "value": 32, "unit": "µg/mL"}, {"measurement": "MIC Mupirocin", "setting": "MRSA; [4]", "value": 0.12, "unit": "µg/mL"}, {"measurement": "MIC Amikacin", "setting": "MRSA; [5]", "value": 4.0, "unit": "µg/mL"}, {"measurement": "MIC Ciprofloxacin", "setting": "MRSA; [5]", "value": 16, "unit": "µg/mL"}, {"measurement": "MIC Mupirocin", "setting": "MRSA; [5]", "value": 0.06, "unit": "µg/mL"}, {"measurement": "MIC Amikacin", "setting": "MRSA; [6]", "value": 4.0, "unit": "µg/mL"}, {"measurement": "MIC Ciprofloxacin", "setting": "MRSA; [6]", "value": 16, "unit": "µg/mL"}, {"measurement": "MIC Mupirocin", "setting": "MRSA; [6]", "value": 0.06, "unit": "µg/mL"}, {"measurement": "MIC Amikacin", "setting": "MRSA; [9]", "value": 4.0, "unit": "µg/mL"}, {"measurement": "MIC Ciprofloxacin", "setting": "MRSA; [9]", "value": 8.0, "unit": "µg/mL"}, {"measurement": "MIC Mupirocin", "setting": "MRSA; [9]", "value": 0.03, "unit": "µg/mL"}, {"measurement": "MIC Drug + potentiator", "setting": "M. tb; Ciprofloxacin + potentiator", "value": "0.25 to 0.5", "unit": "µg/mL"}, {"measurement": "% decrease in MIC", "setting": "M. tb; Ciprofloxacin + potentiator vs drug alone", "value": 50, "unit": "%"}, {"measurement": "MIC Drug + potentiator", "setting": "M. tb; Ofloxacin + potentiator", "value": "0.5 to 1.25", "unit": "µg/mL"}, {"measurement": "% decrease in MIC", "setting": "M. tb; [8]", "value": "0-50%"}, {"measurement": "MIC of Mupirocin", "setting": "MRSA 33; [1]", "value": 0.06, "unit": "µg/mL"}, {"measurement": "MIC of Mupirocin", "setting": "MRSA 33; [2]", "value": 0.03, "unit": "µg/mL"}, {"measurement": "MIC of Mupirocin", "setting": "MRSA 33; [3]", "value": 0.03, "unit": "µg/mL"}, {"measurement": "MIC Drug + potentiator", "setting": "Gm +ve bacteria; Norfloxacin + potentiator", "value": "0.06 to 4", "unit": "µg/mL"}, {"measurement": "% decrease in MIC", "setting": "Gm +ve bacteria; [7]", "value": "50-97%"}, {"measurement": "MIC Drug + potentiator", "setting": "Gm +ve bacteria; Ofloxacin + potentiator", "value": "0.06 to 8", "unit": "µg/mL"}, {"measurement": "% decrease in MIC", "setting": "Gm +ve bacteria; [8]", "value": "50-76%"}]}]}
